# Data reported in PubChem BioAssay AID1347120 (National Center for Advancing Translational Sciences (NCATS), 2019).
# Out of some 390,000 compounds screened, about 930 (0.24%) were called active. The inconclusive results got no clear call from the source; some entries with a clear call stand among them for comparison. The call rests on the fitted dose curve; in most records, active means well fitted activation curve with a large enough effect; inconclusive means small, poorly fitted or top-dose-only effect; inactive means no such curve, though single readings can be large or run the other way. A potency beside an inconclusive call is a rough fit, not a confirmed value.
# Assay: qHTS for Suppressors of FUS Proteinopathy: Primary screen using FUS-linked yeast assay; further: nearly all actives have a fitted effect of over 55% in size;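 on growth rescue (activation): plate controls were DMSO vehicle for no effect and reference control for full effect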
# Details: S. cerevisiae FUS-expressing, OD600, 24 h; Potency: growth rescue; growth rescue (activation): at 76.6 µM (top of the series)
# Summary of the method: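 Cultures pregrown in 2.5% raffinose medium are shifted to minimal medium containing 2% galactose to express toxic FUS. Compounds are tested at several concentrations. After 24hr at 30C, growth is quantified at 600 nm absorbance.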
# Potency means the concentration at half of the fitted maximal effect; tags describe the fitted curve by direction and shape.
SMILES,Potency,growth rescue (activation)
O=C(NCCc1ccccc1)c1ccc2c(c1)N(Cc1ccc(F)cc1)C(=O)CS2,"inconclusive: 39.8 µM [activator, single point]",–
Cc1ccc(-c2csc(NC(=O)CSc3nc(C)cc(=O)[nH]3)n2)cc1,–,inactive: 37.6%
COc1ccccc1CNC(=O)C1(C)CCN1C(=O)Cc1ccc(-c2ccccc2)cc1 (stereo not given),"inconclusive: 39.8 µM [activator, partial curve, poor fit]",–
Cc1ccc(Cn2c(CCNC(=O)c3cccc(C)c3)nc3ccccc32)cc1,–,inactive: 20%
Cc1ccc(NC(=O)c2ccc(CSc3ncnc4nc[nH]c34)cc2)c(C)c1,"inconclusive: 28.2 µM [activator, single point]",–
CC(C)(C)n1nnnc1C1c2ccccc2C(=O)N1CCc1c[nH]c2ccccc12 (stereo not given),"inconclusive: 14.1 µM [activator, partial curve, poor fit]",–
Cc1ccc(Cl)cc1N1CCN(S(=O)(=O)c2cccc(S(=O)(=O)N3CCCC3)c2)CC1,"inconclusive: 3.98 µM [activator, full curve, poor fit]",–
Cc1ccc(Cn2c(C(=O)O)c(CNCc3ccc(C)o3)c3ccc(C)cc32)cc1,"inconclusive: 50.1 µM [activator, single point]",–
CN(c1ccc(C(=O)Nc2ccc(Cl)cn2)cc1)S(=O)(=O)c1ccccc1,"inconclusive: 50.1 µM [activator, single point]",–
O=C(CC1C(=O)NCCN1CC1CCCCC1)NCCc1ccc(F)cc1 (stereo not given),"inconclusive: 31.6 µM [activator, partial curve, poor fit]",–
CCn1cc2nc(SCc3ccccc3Cl)n(Cc3ccc(OC)cc3)c(=O)c2n1,"inconclusive: 3.98 µM [activator, full curve]",–
Cc1ccc2c(c1)N(CC(=O)NCc1cccnc1)C(=O)CO2,–,inconclusive: 52.9% [activator]
Cn1c(=O)cc(SCC(=O)Nc2ccc3c(c2)OCO3)c2ccccc21,"inconclusive: 22.4 µM [activator, partial curve, poor fit]",–
Cc1ccccc1NC(=O)CSc1nnnn1C,"inconclusive: 5.01 µM [activator, single point]",–
O=C1CCC[C@H]2C[C@H](NCc3ccc(Cl)cc3)CC[C@]23CCCN13,–,inactive: -1.45%
COc1ccc(NC(=O)C(=O)NCCc2csc3nc(-c4ccccc4F)nn23)cc1OC,"inconclusive: 28.2 µM [activator, single point]",–
Cc1cccc(N(C(=O)c2nsc(Cl)c2Cl)C(C(=O)NC2CCCC2)c2ccc(O)cc2)c1C (stereo not given),"inconclusive: 10 µM [activator, partial curve]",–
C/C(N)=C(/C#N)C(=O)CSc1nnc(Nc2cccc(C)c2C)s1,inactive,–
CCCNC(=O)c1ccc2c(c1)nc1n2CCCCC1,–,inactive: -4.69%
Cc1noc(C)c1S(=O)(=O)N(CC(=O)Nc1ccc(F)cc1F)c1ccc(C(C)C)cc1,–,inactive: 4.48%

SMILES,Potency,growth rescue (activation)
O=C(CSc1nc(=O)n(Cc2ccccn2)c2c1CCC2)Nc1ccccc1,–,inactive: 7.91%
Cc1nn(-c2ccccc2)c(C)c1/C=C/C(=O)OCC(=O)Nc1ccc(C(N)=O)cc1,–,inactive: 87.2%
Cc1n[nH]c(=O)c2c(NC(=O)CSc3nc4ccccc4c(=O)n3-c3ccc(OC(F)F)cc3)oc(C)c12,"inconclusive: 28.2 µM [activator, partial curve, poor fit]",–
Cc1cc(C)n(-c2nnc(C)n2/N=C/c2ccco2)n1,–,inconclusive: 55.3% [activator]
CCCCCCCNc1cccc(C)c1,–,inactive: 2.59%
COC(=O)c1ccccc1NS(=O)(=O)c1cc2c(cc1C)N(C)CCO2,–,inactive: -21.6%
CCN(Cc1nc(-c2ccc(OC)c(OC)c2)no1)S(=O)(=O)c1ccc(OC)cc1,"inconclusive: 12.6 µM [activator, single point]",–
COc1ccc(-c2nc3sc(CCNC(=O)c4ccc(Br)o4)c(C)n3n2)cc1,"inconclusive: 2.82 µM [activator, full curve]",–
C=C[C@@H]1c2cccc(C)c2N(S(=O)(=O)c2ccc(C)cc2)[C@H](c2ccc(OC(C)=O)cc2)C1(C#N)C#N,"inconclusive: 28.2 µM [activator, partial curve]",–
N#CC(C#N)=C1C(=O)N(CCN2CCCCC2)c2ccccc21,active: 22.4 µM,–
C=CCNc1oc(Cc2cccc3ccccc23)nc1C#N,"inconclusive: 31.6 µM [activator, single point]",–
CC1(C)C(=O)NCCN1C(=O)CC1C(=O)NCCN1Cc1cccc(C(F)(F)F)c1 (stereo not given),–,inactive: 0.046%
CCOC(=O)[C@]12CCCC=C1N(Cc1cccc3ccccc13)C(=O)[C@H](CC(=O)NCCCN1CCCC1=O)C2,"inconclusive: 20 µM [activator, partial curve, poor fit]",–
COc1ccc(-n2nc3c(c2NC(=O)c2ccc4c(c2)OCO4)CS(=O)(=O)C3)cc1,"inconclusive: 39.8 µM [activator, partial curve, poor fit]",–
N#Cc1c(-c2ccccc2)cc(-c2ccccc2)nc1SCC(O)CS(=O)(=O)Cc1ccc(Cl)cc1 (stereo not given),"inconclusive: 35.5 µM [activator, partial curve]",–
C#CCN(C[C@@H]1[C@@H](OC(=O)Nc2cccs2)[C@@H](OC(=O)Nc2cccs2)Cn2c(=O)ccc(=O)n21)S(=O)(=O)c1ccc(C)cc1,"inconclusive: 25.1 µM [activator, partial curve, poor fit]",–
O=C(C[C@H]1C/C=C\CC[C@@H](Cc2ccc(F)cc2)C(=O)O[C@@H](c2ccccc2)CNC1=O)N[C@H](CO)Cc1ccccc1,"inconclusive: 28.2 µM [activator, single point]",–
CN1C(=O)/C(=C/c2ccccc2Cl)Sc2ccc(C(=O)N3CCCC3)cc21,"inconclusive: 31.6 µM [activator, single point]",–
Cc1ccccc1-c1ccc(Nc2ccc(N3CCOCC3)cc2)nn1,"inconclusive: 14.1 µM [activator, partial curve, poor fit]",–
CC(C)(C)NS(=O)(=O)c1ccc(NC(=O)C(Sc2ccccc2)c2ccccc2)cc1 (stereo not given),"inconclusive: 17.8 µM [activator, partial curve, poor fit]",–
